{"source": "patent US20250221953A1", "about": "(The University of Chicago, priority 2022, published 2025)"}
{"test_system": "PD-1^+ Jurkat T cells co-cultured with H596 (PD-L1^+) cells", "test": "1st screen 1b: rescue of PD-L1/PD-1 dependent exhaustion of PD-1+ Jurkat T cells in co-culture (IL-2 ELISA)", "type": "cell-based, human", "conditions": "1st screen 1b (Table 4): rescue of PD-L1/PD-1 dependent exhaustion of PD-1 expressing Jurkat T cells co-cultured with PD-L1-expressing H596 cells", "units": {"Relative changed percentage (%)": "%"}}
{"smiles": "N[C@@H](Cc1cc(I)c(Oc2ccc(O)c(I)c2)c(I)c1)C(=O)[O-].[Na+]", "Relative changed percentage (%)": 5.58}
{"smiles": "Cl.NCCc1c[nH]c2ccc(O)cc12", "Relative changed percentage (%)": "−47.01"}
{"smiles": "Cc1cc2nc3c(=O)[nH]c(=O)nc-3n(C[C@H](O)[C@H](O)[C@H](O)COP(=O)([O-])OP(=O)([O-])OC[C@H]3O[C@@H](n4cnc5c(N)ncnc54)[C@H](O)[C@@H]3O)c2cc1C.[Na+].[Na+]", "Relative changed percentage (%)": "−17.86"}
{"smiles": "Nc1nc2c(ncn2[C@@H]2O[C@@H]3COP(=O)([O-])O[C@H]3[C@H]2O)c(=O)[nH]1.[Na+]", "Relative changed percentage (%)": 161.1621}
{"smiles": "O=C(O)CCCCC1CCSS1", "note": "(racemic) [DL-6,8-Thioctic Acid]", "Relative changed percentage (%)": 20.32}
{"smiles": "O=C(O)CC(O)C(=O)O", "note": "(racemic) [DL-MALIC ACID]", "Relative changed percentage (%)": "−54.9"}
{"smiles": "CC(O)CC(=O)O", "note": "(stereo not drawn) [3-HYDROXYBUTYRIC ACID]", "Relative changed percentage (%)": "−38.35"}
{"smiles": "C[C@]12CCC(=O)C[C@@H]1CC[C@@H]1[C@@H]2CC[C@]2(C)[C@@H](O)CC[C@@H]12", "note": "[5ALPHA-DIHYDROTESTOSTERONE (DHT)/DHT]", "Relative changed percentage (%)": "−28.08"}
{"smiles": "C[C@]12CCC(=O)C=C1CC[C@@H]1[C@@H]2CC[C@@]2(C)[C@H]1CC[C@]2(O)C(=O)CO", "note": "[11-DEOXYCORTISOL/Cortexolone, 11-DEOXYCORTISOL]", "Relative changed percentage (%)": "−56.72"}
{"smiles": "CC(=O)[C@@]1(O)CC[C@H]2[C@@H]3CCC4=CC(=O)CC[C@]4(C)[C@H]3CC[C@@]21C", "note": "[17A-HYDROXYPROGESTERONE]", "Relative changed percentage (%)": "−28.91"}
{"smiles": "Cc1cc(O)cc2c1O[C@](C)(CCC[C@H](C)CCC[C@H](C)CCCC(C)C)CC2", "note": "[(+)-DELTA-TOCOPHEROL]", "Relative changed percentage (%)": "−31.64"}
{"smiles": "Cc1c(O)cc2c(c1C)O[C@](C)(CCC[C@H](C)CCC[C@H](C)CCCC(C)C)CC2", "note": "[(+)-GAMMA-TOCOPHEROL]", "Relative changed percentage (%)": "−68.17"}
{"smiles": "CC1=CCCC(C)(C)C1/C=C/C(C)=C/C=C/C(C)=C/C=C/C=C(C)/C=C/C=C(C)/C=C/C1=C(C)CCCC1(C)C", "note": "(stereo not drawn) [A-CAROTENE]", "Relative changed percentage (%)": "−7.399"}
{"smiles": "CC1=C[C@H](O)CC(C)(C)C1/C=C/C(C)=C/C=C/C(C)=C/C=C/C=C(C)/C=C/C=C(C)/C=C/C1=C(C)CCCC1(C)C", "note": "(stereo partly drawn) [A-CRYPTOXANTHIN]", "Relative changed percentage (%)": 0.7068}
{"smiles": "CC(C)=O", "note": "[ACETONE]", "Relative changed percentage (%)": 54.13}
{"smiles": "CC(=O)OCC[N+](C)(C)C.[Cl-]", "note": "[ACE[…]]", "Relative changed percentage (%)": 46.02}
{"smiles": "Nc1ncnc2c1ncn2[C@@H]1O[C@H](CO)[C@@H](O)[C@H]1O", "note": "[ADENOSINE FREE BASE]", "Relative changed percentage (%)": "−41.49"}
{"smiles": "CCO", "note": "[ALCOHOL]", "Relative changed percentage (%)": "−5.939"}
{"smiles": "C[C@]12CCC(=O)C=C1CC[C@@H]1[C@@H]2CC[C@]2(C)C(=O)CC[C@@H]12", "note": "[ANDROSTENEDIONE]", "Relative changed percentage (%)": "−8.443"}
{"smiles": "CC[C@H](C)[C@H](NC(=O)[C@H](Cc1ccc(O)cc1)NC(=O)[C@@H](NC(=O)[C@H](CCCNC(=N)N)NC(=O)[C@@H](N)CC(=O)O)C(C)C)C(=O)N[C@@H](Cc1cnc[nH]1)C(=O)N1CCC[C@H]1C(=O)N[C@@H](Cc1ccccc1)C(=O)O", "note": "[ANGIOTENSIN II HUMAN]", "Relative changed percentage (%)": 52.67}
{"smiles": "Nc1ncnc2c1ncn2[C@@H]1O[C@H](COP(=O)([O-])OP(=O)([O-])OP(=O)(O)O)[C@@H](O)[C@H]1O.[Na+].[Na+]", "note": "[Adenosine 5′-Triphosphate Disodium]", "Relative changed percentage (%)": "−49.53"}
{"smiles": "CCCCC/C=C\\C/C=C\\C/C=C\\C/C=C\\CCCC(=O)O", "note": "[Arachidonic acid]", "Relative changed percentage (%)": "−35.91"}
{"smiles": "CC1=C(/C=C/C(C)=C/C=C/C(C)=C/C=C/C=C(C)/C=C/C=C(C)/C=C/C2=C(C)C(=O)[C@@H](O)CC2(C)C)C(C)(C)C[C@H](O)C1=O", "note": "[Astaxanthin]", "Relative changed percentage (%)": 10.19}
{"smiles": "CC1=C(/C=C/C(C)=C/C=C/C(C)=C/C=C/C=C(C)/C=C/C=C(C)/C=C/C2=C(C)C[C@@H](O)CC2(C)C)C(C)(C)CCC1", "note": "[BETA-CRYPTOXANTIIIN]", "Relative changed percentage (%)": 36.95}
{"smiles": "C[N+](C)(C)CC(=O)O", "note": "[BETAINE]", "Relative changed percentage (%)": "−69.21"}
{"smiles": "O=C(O)CCCC[C@@H]1SC[C@@H]2NC(=O)N[C@@H]21", "note": "[BIOTIN, POWDER,, BIOTIN]", "Relative changed percentage (%)": "−24.34"}
{"smiles": "[Cl][Cd][Cl]", "note": "[CADMIUM CHLORIDE/cadmium]", "Relative changed percentage (%)": "−23.32"}
{"smiles": "C=C1CC[C@H](O)C/C1=C/C=C1\\CCC[C@]2(C)[C@@H]([C@H](C)CCCC(C)C)CC[C@@H]12", "note": "[CHOLECALCIFEROL CRYSTALLINE, CHOLECALCIFEROL]", "Relative changed percentage (%)": "−71.75"}
{"smiles": "CC(C)CCC[C@@H](C)[C@H]1CC[C@H]2[C@@H]3CC=C4C[C@@H](O)CC[C@]4(C)[C@H]3CC[C@]12C", "note": "[CHOLESTEROL]", "Relative changed percentage (%)": "−24.1"}
{"smiles": "O=S(=O)([O-])[O-].[Cu+2]", "note": "[COPPER(II) SULFATE, ANHYDROUS,/copper, COPPER(II) SULFATE, ANHYDROUS]", "Relative changed percentage (%)": 108.4}
{"smiles": "C[C@]12CCC(=O)C=C1CC[C@@H]1[C@@H]2C(=O)C[C@@]2(C)[C@H]1CC[C@]2(O)C(=O)CO", "note": "[CORTISONE]", "Relative changed percentage (%)": "−34.65"}
{"smiles": "CN1CC(=O)NC1=N", "note": "[CREATININE, ANHYDROUS,]", "Relative changed percentage (%)": 125.8}
{"smiles": "Nc1cc[nH]c(=O)n1", "note": "[CYTOSINE]", "Relative changed percentage (%)": "−34.93"}
{"smiles": "O=C(/C=C/c1ccc(O)c(O)c1)OCCc1ccccc1", "note": "[Caffeic acid phenethyl ester]", "Relative changed percentage (%)": 2.439}
{"smiles": "Cn1c(=O)c2c(ncn2C)n(C)c1=O", "note": "[Caffeine]", "Relative changed percentage (%)": "−6.216"}
{"smiles": "O=C([O-])CC(O)(CC(=O)[O-])C(=O)[O-].O=C([O-])CC(O)(CC(=O)[O-])C(=O)[O-].[Ca+2].[Ca+2].[Ca+2]", "note": "[Calcium citrate]", "Relative changed percentage (%)": 24.66}
{"smiles": "O=C([O-])[C@@H](O)[C@@H](O)[C@H](O)[C@@H](O)C(=O)[O-].[Ca+2]", "note": "[Calcium d-glucarate]", "Relative changed percentage (%)": 41.61}
{"smiles": "COc1cc(CNC(=O)CCCC/C=C/C(C)C)ccc1O", "note": "[Capsaicin]", "Relative changed percentage (%)": "−3.441"}
{"smiles": "[Cl][Cr]([Cl])[Cl]", "note": "[Chromium Chloride]", "Relative changed percentage (%)": 25.3}
{"smiles": "O=C(O)CC(O)(CC(=O)O)C(=O)O", "note": "[Citric Acid]", "Relative changed percentage (%)": 82.45}
{"smiles": "COC1=C(OC)C(=O)C(C/C=C(\\C)CC/C=C(\\C)CC/C=C(\\C)CC/C=C(\\C)CC/C=C(\\C)CC/C=C(\\C)CC/C=C(\\C)CC/C=C(\\C)CC/C=C(\\C)CCC=C(C)C)=C(C)C1=O", "note": "[CoQ-10]", "Relative changed percentage (%)": 26.1655}
{"smiles": "CCCCC[C@H](O)CC(=O)CCc1ccc(O)c(OC)c1", "note": "[Compound 6-gingerol, 6-gingerol]", "Relative changed percentage (%)": "−49.51"}
{"smiles": "OC[C@H]1OC(O)[C@H](O)[C@@H](O)[C@H]1O", "note": "(stereo partly drawn) [D(+)-GALACTOSE ANHYDROUS]", "Relative changed percentage (%)": 87.93}
{"smiles": "O=C(CO)[C@@H](O)[C@H](O)[C@H](O)CO", "note": "[D(−)FRUCTOSE]", "Relative changed percentage (%)": 28.94}
{"smiles": "O.OC[C@H]1O[C@@H](O[C@H]2[C@H](O)[C@@H](O)C(O)O[C@@H]2CO)[C@H](O)[C@@H](O)[C@H]1O", "note": "(stereo partly drawn) [D-LACTOSE MONOHYDRATE]", "Relative changed percentage (%)": "−6.577"}
{"smiles": "N[C@H]1C(O)O[C@H](CO)[C@@H](O)[C@@H]1OS(=O)(=O)O", "note": "(stereo partly drawn) [D-glucosamine 3-sulfate]", "Relative changed percentage (%)": 1.387}
{"smiles": "CC/C=C\\C/C=C\\C/C=C\\C/C=C\\C/C=C\\C/C=C\\CCC(=O)O", "note": "[Docosahexaenoic Acid (DHA)]", "Relative changed percentage (%)": "−27.37"}
{"test_system": "PD-1^+ Jurkat T cells co-cultured with H596 (PD-L1^+) cells", "test": "1st screen 1b: rescue of PD-L1/PD-1 dependent exhaustion of PD-1+ Jurkat T cells in co-culture (IL-2 ELISA)", "type": "cell-based, human", "conditions": "1st screen 1b (Table 4): rescue of PD-L1/PD-1 dependent exhaustion of PD-1 expressing Jurkat T cells co-cultured with PD-L1-expressing H596 cells; Hydrochloride", "units": {"Relative changed percentage (%)": "%"}}
{"smiles": "Cl.N[C@H]1C(O)O[C@H](CO)[C@@H](O)[C@@H]1O", "note": "(stereo partly drawn) [D-(+)-Glucosamine Hydrochloride]", "Relative changed percentage (%)": 7.37}
